Results reported in patent US20190177376A1 (NAVIGO PROTEINS, published 2019).

How the values were obtained:
[1] = molecular target: T1, IgG1 (column of Table 2: human IgG1-Fc or Cetuximab) (human); experiment: SPR, Biacore 3000, CM5 chip, 25 C, Langmuir 1:1
T1 construct: It cannot be told whether the IgG1 column was measured with human IgG1-Fc or with Cetuximab; also called Cetuximab (IgG1)

Natalizumab (IgG4) = experiment: SPR, Biacore 3000, CM5 chip, 25 C, Langmuir 1:1
Chain of Natalizumab (IgG4) (VH, as listed by the source, chain 1 of 2): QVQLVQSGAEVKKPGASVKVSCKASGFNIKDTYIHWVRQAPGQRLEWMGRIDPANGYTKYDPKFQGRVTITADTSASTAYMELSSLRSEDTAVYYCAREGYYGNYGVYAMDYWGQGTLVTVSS
Chain of Natalizumab (IgG4) (VL, as listed by the source, chain 2 of 2): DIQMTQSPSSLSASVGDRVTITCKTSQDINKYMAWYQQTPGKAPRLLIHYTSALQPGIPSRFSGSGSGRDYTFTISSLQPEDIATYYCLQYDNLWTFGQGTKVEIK

Row | Binder | Kd [1] [nM] | Kd (Natalizumab (IgG4)) [nM]
1 | cs25 (SEQ ID NO: 26) (designed binder, also called cs25-2) IAAKHDKDQQAAFYEILHLPNLTEDQRNAFIQSLRDDPSVSLEILAEAKKLNDAQAPKWSHPQFEK | 4.24 | 3.27
2 | cs74h1 (SEQ ID NO: 42) (designed binder) IAAKFDEAQQAAFYEILHLPNLTEDQRNAFIQSLRDDPSVSLEILGEAKKLNDAQAPPWSHPQFEK | 1.64 | 1.2
3 | cs14 (SEQ ID NO: 20) (designed binder, also called cs14-3; 1I/11A/28N/35R/42L) IAAKHDKDQQAAFYEILHLPNLTEDQRNAFIQSLRDDPSVSLEILGEAKKLNDAQAPPWSHPQFEK |  | 2.51
4 | cs47h3 (SEQ ID NO: 44) (designed binder) IAAKHDKDQQAAFYEILHLPNLTEDQRNAFIQSLRDDPSVSLEVLGEAQKLNDSQAPKWSHPQFEK | 4.78 | 4.05
5 | cs47h4 (SEQ ID NO: 45) (designed binder) IAAKHDKDQQAAFYEILHLPNLTEEQRNAFIQSLRDDPSVSLEVLGEAQKLNDSQAPKWSHPQFEK | 4.1 | 3.11
6 | cs27 (SEQ ID NO: 30) (designed binder, also called cs27-2; 1I/11A/35R/42L) IAAKFDEAQQAAFYEILHLPNLTEEQRNAFIQSLRDDPSVSLEVLGEAQKLNDSQAPKWSHPQFEK |  | 2.54
7 | cs74h2 (SEQ ID NO: 43) (designed binder) IAAKFDEAQQAAFYEILHLPNLTEEQRNAFIQSLRDDPSVSLEILGEAKKLNDAQAPPWSHPQFEK | 3.48 | 2.72
